These results are taken from PMC9911399, “Two distinct binding modes provide the RNA-binding protein RbFox with extraordinary sequence specificity”.

The labels stand for the following.
T1: RBFOX1 RRM (Homo sapiens, UniProt Q9NWB1 109-208)
T1 sequence: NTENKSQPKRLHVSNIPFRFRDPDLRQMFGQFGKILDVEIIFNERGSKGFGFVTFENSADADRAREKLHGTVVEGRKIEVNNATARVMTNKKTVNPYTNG

B1: AAUAAAU (DNA:RNA)
RNA: GGGAGACCGGAAUUCAGAUUGUCCAAUAAAUUUAAAUCCCGUCGUAGCCACCA
DNA 1: CAATCTGAATTCCGGTCTCCC
DNA 2: TGGTGGCTACGACGGGATT
B2: GAGGUGG (DNA:RNA)
RNA: B1 RNA with A25G, U27G, A28G, A29U, A30G, U31G
DNA 1: CAATCTGAATTCCGGTCTCCC
DNA 2: TGGTGGCTACGACGGGATT
B3: AUGUUCC (DNA:RNA)
RNA: B1 RNA with A26U, U27G, A28U, A29U, A30C, U31C
DNA 1: CAATCTGAATTCCGGTCTCCC
DNA 2: TGGTGGCTACGACGGGATT
B4: GGCAGUU (DNA:RNA)
RNA: B1 RNA with A25G, A26G, U27C, A29G, A30U
DNA 1: CAATCTGAATTCCGGTCTCCC
DNA 2: TGGTGGCTACGACGGGATT
B5: AGCCUCA (DNA:RNA)
RNA: B1 RNA with A26G, U27C, A28C, A29U, A30C, U31A
DNA 1: CAATCTGAATTCCGGTCTCCC
DNA 2: TGGTGGCTACGACGGGATT
B6: GUCGCAU (DNA:RNA)
RNA: B1 RNA with A25G, A26U, U27C, A28G, A29C
DNA 1: CAATCTGAATTCCGGTCTCCC
DNA 2: TGGTGGCTACGACGGGATT
B7: CAGCGCG (DNA:RNA)
RNA: B1 RNA with A25C, U27G, A28C, A29G, A30C, U31G
DNA 1: CAATCTGAATTCCGGTCTCCC
DNA 2: TGGTGGCTACGACGGGATT
B8: CUACGGU (DNA:RNA)
RNA: B1 RNA with A25C, A26U, U27A, A28C, A29G, A30G
DNA 1: CAATCTGAATTCCGGTCTCCC
DNA 2: TGGTGGCTACGACGGGATT
B9: GAGAGCU (DNA:RNA)
RNA: B1 RNA with A25G, U27G, A29G, A30C
DNA 1: CAATCTGAATTCCGGTCTCCC
DNA 2: TGGTGGCTACGACGGGATT
B10: AAAGGCG (DNA:RNA)
RNA: B1 RNA with U27A, A28G, A29G, A30C, U31G
DNA 1: CAATCTGAATTCCGGTCTCCC
DNA 2: TGGTGGCTACGACGGGATT
B11: GAGUCAU (DNA:RNA)
RNA: B1 RNA with A25G, U27G, A28U, A29C
DNA 1: CAATCTGAATTCCGGTCTCCC
DNA 2: TGGTGGCTACGACGGGATT
B12: CCCAGGC (DNA:RNA)
RNA: B1 RNA with A25C, A26C, U27C, A29G, A30G, U31C
DNA 1: CAATCTGAATTCCGGTCTCCC
DNA 2: TGGTGGCTACGACGGGATT
B13: AUGAAAC (DNA:RNA)
RNA: B1 RNA with A26U, U27G, U31C
DNA 1: CAATCTGAATTCCGGTCTCCC
DNA 2: TGGTGGCTACGACGGGATT
B14: AGUCUUG (DNA:RNA)
RNA: B1 RNA with A26G, A28C, A29U, A30U, U31G
DNA 1: CAATCTGAATTCCGGTCTCCC
DNA 2: TGGTGGCTACGACGGGATT
B15: GUAGCAG (DNA:RNA)
RNA: B1 RNA with A25G, A26U, U27A, A28G, A29C, U31G
DNA 1: CAATCTGAATTCCGGTCTCCC
DNA 2: TGGTGGCTACGACGGGATT
B16: CAACCGG (DNA:RNA)
RNA: B1 RNA with A25C, U27A, A28C, A29C, A30G, U31G
DNA 1: CAATCTGAATTCCGGTCTCCC
DNA 2: TGGTGGCTACGACGGGATT
B17: CCAGGGC (DNA:RNA)
RNA: GGGAGACCGGAAUUCAGAUUGUCCCCAGGGCUUAAAUCCCGUCGUAGCCACCA
DNA 1: CAATCTGAATTCCGGTCTCCC
DNA 2: TGGTGGCTACGACGGGATT
B18: CUGUCGG (DNA:RNA)
RNA: B17 RNA with C26U, A27G, G28U, G29C, C31G
DNA 1: CAATCTGAATTCCGGTCTCCC
DNA 2: TGGTGGCTACGACGGGATT
B19: AGACAGU (DNA:RNA)
RNA: B1 RNA with A26G, U27A, A28C, A30G
DNA 1: CAATCTGAATTCCGGTCTCCC
DNA 2: TGGTGGCTACGACGGGATT
B20: GUUCAAA (DNA:RNA)
RNA: B1 RNA with A25G, A26U, A28C, U31A
DNA 1: CAATCTGAATTCCGGTCTCCC
DNA 2: TGGTGGCTACGACGGGATT
B21: UCAAUGG (DNA:RNA)
RNA: B17 RNA with C25U, G28A, G29U, C31G
DNA 1: CAATCTGAATTCCGGTCTCCC
DNA 2: TGGTGGCTACGACGGGATT
B22: UGAAGGU (DNA:RNA)
RNA: B17 RNA with C25U, C26G, G28A, C31U
DNA 1: CAATCTGAATTCCGGTCTCCC
DNA 2: TGGTGGCTACGACGGGATT
B23: GUUGUUC (DNA:RNA)
RNA: B17 RNA with C25G, C26U, A27U, G29U, G30U
DNA 1: CAATCTGAATTCCGGTCTCCC
DNA 2: TGGTGGCTACGACGGGATT
B24: UCGGUUC (DNA:RNA)
RNA: B17 RNA with C25U, A27G, G29U, G30U
DNA 1: CAATCTGAATTCCGGTCTCCC
DNA 2: TGGTGGCTACGACGGGATT
B25: CCACGCG (DNA:RNA)
RNA: B17 RNA with G28C, G30C, C31G
DNA 1: CAATCTGAATTCCGGTCTCCC
DNA 2: TGGTGGCTACGACGGGATT
B26: UUCCAUA (DNA:RNA)
RNA: B1 RNA with A25U, A26U, U27C, A28C, A30U, U31A
DNA 1: CAATCTGAATTCCGGTCTCCC
DNA 2: TGGTGGCTACGACGGGATT
B27: AUCGGUG (DNA:RNA)
RNA: B17 RNA with C25A, C26U, A27C, G30U, C31G
DNA 1: CAATCTGAATTCCGGTCTCCC
DNA 2: TGGTGGCTACGACGGGATT
B28: GCAUCCA (DNA:RNA)
RNA: B17 RNA with C25G, G28U, G29C, G30C, C31A
DNA 1: CAATCTGAATTCCGGTCTCCC
DNA 2: TGGTGGCTACGACGGGATT
B29: UCAUGGU (DNA:RNA)
RNA: B17 RNA with C25U, G28U, C31U
DNA 1: CAATCTGAATTCCGGTCTCCC
DNA 2: TGGTGGCTACGACGGGATT
B30: AUGGAUA (DNA:RNA)
RNA: B1 RNA with A26U, U27G, A28G, A30U, U31A
DNA 1: CAATCTGAATTCCGGTCTCCC
DNA 2: TGGTGGCTACGACGGGATT
B31: AAGUUCA (DNA:RNA)
RNA: B1 RNA with U27G, A28U, A29U, A30C, U31A
DNA 1: CAATCTGAATTCCGGTCTCCC
DNA 2: TGGTGGCTACGACGGGATT

Changes are numbered by the printed parent chain; changes in the protein carry UniProt numbers. Some of the results follow.

This assay has as its target T1, RBFOX1 RRM. Briefly: EMSA; HiTS-Eq, 1 nM pool, 10 min; buffer printed only for the single-RNA assays: 10 mM Tris pH 7.5, 150 mM NaCl, 3.4 mM EDTA, 0.001% NP-40, 30 C. Conditions: tags: His6 N-terminal (pET28a); label: 5' 32P. The method, boiled down:
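Purified RbFox RRM, wild type or mutant, was incubated for 10 min in 50 µL with 1 nM of a 5′-radiolabelled RNA pool carrying 7 randomized nucleotides, whose flanks were annealed to DNA oligonucleotides, over a series of increasing protein concentrations. Unbound RNA was resolved on 8% native PAGE, cut out, reverse-transcribed, barcoded by PCR and sequenced on an Illumina HiSeq 2500. Relative association constants were derived from changes in read counts for each RNA species versus the control reaction and normalised to the cognate motif.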
In general terms: A gel shift assay detects complexes by their altered migration in electrophoresis.
In the case of B1, the binding signal is 0.00167 KA relative to UGCAUGU. The value for B2 was 0.0226 KA relative to UGCAUGU; that for B3 was 0.00732 KA relative to UGCAUGU; that for B4 was 0.00919 KA relative to UGCAUGU.

With B5, the binding signal is 0.00311 KA relative to UGCAUGU. The value for B6 was 0.019 KA relative to UGCAUGU; that for B7 was 0.0118 KA relative to UGCAUGU; that for B8 was 0.00974 KA relative to UGCAUGU. As to B9, the binding signal was 0.016 KA relative to UGCAUGU.

On to B10, for which the binding signal is 0.008 KA relative to UGCAUGU. The same measure for B11: 0.0115 KA relative to UGCAUGU.

In the case of B12, the binding signal was 0.00904 KA relative to UGCAUGU. The value for B13 was 0.00505 KA relative to UGCAUGU; that for B14 was 0.0215 KA relative to UGCAUGU. In the case of B15, the binding signal is 0.0117 KA relative to UGCAUGU. Regarding B16, the binding signal is 0.00265 KA relative to UGCAUGU. The value for B17 was 0.00655 KA relative to UGCAUGU; that for B18 was 0.0193 KA relative to UGCAUGU. The value for B19 was 0.00833 KA relative to UGCAUGU; that for B20 was 0.00543 KA relative to UGCAUGU. Regarding B21, the binding signal is 0.0112 KA relative to UGCAUGU.

Turning to B22, the binding signal is 0.0201 KA relative to UGCAUGU.

B23: the binding signal was 0.0257 KA relative to UGCAUGU.

As for B24, the binding signal was 0.0173 KA relative to UGCAUGU. On to B25, for which the binding signal is 0.00319 KA relative to UGCAUGU. For the molecule B26, the binding signal is 0.00165 KA relative to UGCAUGU. The same measure for B27: 0.0182 KA relative to UGCAUGU; for B28: 0.0224 KA relative to UGCAUGU; for B29: 0.0123 KA relative to UGCAUGU.

For the molecule B30, the binding signal is 0.0112 KA relative to UGCAUGU.

On to B31, for which the binding signal is 0.00423 KA relative to UGCAUGU.
